From the supplement of paper PMC9174493 come the findings set out here.

The structures appear in SMILES notation. The list shows a part of the results. Single values of this set are uncertain. Values with irradiation are relative to irradiated vehicle.

This experiment deals with A549-Dual. In words: ISRE reporter (Lucia luciferase) activity, viability-corrected, relative to vehicle (fold change vs vehicle); higher = more activation of STING-IRF / NF-kB immune response reporter. The conditions noted are these: 10 µM; irradiation: none.
`COc1cc2nc(N(C)CCCNC(=O)C3CCCO3)nc(N)c2cc1OC.Cl` (stereo not given) [Alfuzosin HCl] gave an ISRE reporter of 0.958.

Turning to `N=C(N)NCCCC1NC(=O)C(CCCCN)NC(=O)C(Cc2ccccc2)NC(=O)C(CC(=O)O)NC(=O)CNC1=O.O=C(O)C(F)(F)F` (stereo not given) [Cyclo (-RGDfK)], the ISRE reporter came out at 0.737.

`CC(C)=CCCC(C)(OC1OC(CO)C(O)C(O)C1O)C1CCC2(C)C1C(O)CC1C3(C)CCC(O)C(C)(C)C3C(OC3OC(CO)C(O)C(O)C3OC3OC(C)C(O)C(O)C3O)CC12C` (stereo not given) [Ginsenoside Re]: the ISRE reporter was determined as 0.58.

`Cc1onc(-c2ccccc2)c1-c1ccc(S(N)(=O)=O)cc1` [Valdecoxib] displayed an ISRE reporter of 0.739.

Compound `Cc1cc(C)nc(NS(=O)(=O)c2ccc(N)cc2)n1` [Sulfamethazine] displayed an ISRE reporter of 0.793.

For the compound `NC12CC3CC(CC(C3)C1)C2` [Amantadine], the ISRE reporter is 0.931.

Compound `O=C(NCC(O)CO)c1c(I)c(C(=O)NCC(O)CO)c(I)c(N(CCO)C(=O)CO)c1I` (stereo not given) [Ioversol] returned an ISRE reporter of 0.546.

The compound `CCN(CC)CC(=O)Oc1ccc(NC(C)=O)cc1.Cl` [Propacetamol hydrochloride] registered an ISRE reporter of 0.799.

`CCS(=O)(=O)CCn1c([N+](=O)[O-])cnc1C` [Tinidazole]: the ISRE reporter turned out to be 0.835.

For `CCCCOc1ccc(OCCCN2CCOCC2)cc1.Cl` [Pramoxine HCl], the ISRE reporter turned out to be 1.19.

Compound `Cc1nc[nH]c1CN1CCc2c(c3ccccc3n2C)C1=O.Cl` [Alosetron Hydrochloride] registered an ISRE reporter of 0.592.

`OCC(O)COc1ccc(Cl)cc1` (stereo not given) [Chlorphenesin] had an ISRE reporter of 0.693.

`O=c1cc(O)c(Cl)c[nH]1` [Gimeracil]: the ISRE reporter turned out to be 0.723.

`O=C(O)c1cc(=O)[nH]c(=O)[nH]1` [Orotic acid (6-Carboxyuracil)] gave an ISRE reporter of 0.67.

In turn, `CNCC(O)C(O)C(O)C(O)CO.CNCC(O)C(O)C(O)C(O)CO.O=C(O)CN1CCN2CCN(CC(=O)O)CC(=O)[O][Gd]([O]C(=O)C2)[O]C(=O)C1` [Gadopentetate Dimeglumine] registered an ISRE reporter of 0.633.

The compound `CS(=O)(=O)O.Cc1c(O)cccc1C(=O)NC(CSc1ccccc1)C(O)CN1CC2CCCCC2CC1C(=O)NC(C)(C)C` (stereo not given) [Nelfinavir Mesylate] came in with an ISRE reporter of 1.07.

In the case of `CCN1CCCC1CNC(=O)c1cc(S(=O)(=O)CC)c(N)cc1OC` (stereo not given) [Amisulpride], the ISRE reporter was found to be 0.812.

Compound `CC(=O)NC(CC(C)C)C(=O)O` (stereo not given) [Acetylleucine] registered an ISRE reporter of 0.453.

As to `NC(Cc1cc(I)c(Oc2cc(I)c(O)c(I)c2)c(I)c1)C(=O)[O-].[Na+]` (stereo not given) [Levothyroxine sodium], the ISRE reporter worked out at 0.521.

With `Cl.O=C1C2CCCCC2C(=O)N1CCCCN1CCN(c2nsc3ccccc23)CC1` (stereo not given) [Perospirone hydrochloride], the ISRE reporter was found to be 0.941.

Compound `CCOC(=O)C1=CC2(CC)CCCN3CCc4c(n1c1ccccc41)C32` (stereo not given) [Vinpocetine] gave an ISRE reporter of 0.615.

As for `COc1ccccc1OCCNCC(O)COc1cccc2[nH]c3ccccc3c12.O=P(O)(O)O` (stereo not given) [Carvedilol Phosphate], the ISRE reporter is 1.21.

For `COc1ccccc1OCCNCC(O)COc1cccc2[nH]c3ccccc3c12` (stereo not given) [Carvedilol], the ISRE reporter stood at 1.59.

Consider `COc1ccc(C(=O)c2ccc(C)cc2)c(O)c1` [Mexenone], for which the ISRE reporter came out at 0.506.

`CCOCCn1c(N2CCCN(C)CC2)nc2ccccc21.O=C(O)/C=C/C(=O)O.O=C(O)/C=C/C(=O)O` [Emedastine Difumarate] showed an ISRE reporter of 0.879.

Compound `CNC1C(O)C(NC)C2OC3(O)C(=O)CC(C)OC3OC2C1O.Cl.Cl` (stereo not given) [Spectinomycin 2HCl] came in with an ISRE reporter of 0.875.

Consider `CC1=C(C(=O)O)N2C(=O)C(NC(=O)C(N)c3ccccc3)C2SC1` (stereo not given) [Cephalexin], for which the ISRE reporter came to 1.02.

The compound `CC(=O)O.Cc1c(-c2ccc(O)cc2)n(Cc2ccc(OCCN3CCCCCC3)cc2)c2ccc(O)cc12` [Bazedoxifene Acetate] displayed an ISRE reporter of 2.34.

For the compound `O=C([O-])P(=O)([O-])[O-].[Na+].[Na+].[Na+]` [Foscarnet Sodium], the ISRE reporter came out at 1.71.

On to `CN(C)CCOC(c1ccccc1)c1ccccc1.Cn1c(=O)c2[nH]c(Cl)nc2n(C)c1=O` [Dimenhydrinate], for which the ISRE reporter turned out to be 1.02.

For the compound `OCC1OC(OC2C(CO)OC(O)C(O)C2O)C(O)C(O)C1O` [D-(+)-Cellobiose], the ISRE reporter came out at 0.688.

In turn, `O=C1C(O)=C(C2CCC(c3ccc(Cl)cc3)CC2)C(=O)c2ccccc21` (stereo not given) [Atovaquone] came in with an ISRE reporter of 0.713.

The compound `COC(=O)C1C(C)C(OC)/C=C/OC2(C)Oc3c(C)c(O)c4c(O)c(cc([O-])c4c3C2=O)NC(=O)/C(C)=C\C=C\C(C)C(O)C(C)C(O)C1C.[Na+]` (stereo not given) [Rifamycin sodium salt] showed an ISRE reporter of 1.01.

Regarding `Br.Cc1ccc(Sc2ccccc2N2CCNCC2)c(C)c1`, the ISRE reporter stood at 0.416.

As for `CC(Cn1cnc2c(N)ncnc21)OCP(=O)(O)O` (stereo not given) [Tenofovir], the ISRE reporter came out at 0.754.

As for `COC(=O)C1=C(C)NC(C)=C(C(=O)OCCN(C)Cc2ccccc2)C1c1cccc([N+](=O)[O-])c1.Cl` (stereo not given) [Nicardipine HCl], the ISRE reporter worked out at 1.73.

The compound `Br.COc1ccc2c3c1OC1CC(O)C=CC31CCN(C)C2` (stereo not given) [Galanthamine HBr] showed an ISRE reporter of 0.647.

Compound `COc1cc(N)c(Cl)cc1C(=O)NC1CCN(CCCOc2ccc(F)cc2)CC1OC.O` (stereo not given) [Cisapride hydrate] had an ISRE reporter of 0.587.

Compound `CCCCCCCCCCCCCCC(=O)O` [Pentadecanoic acid] came in with an ISRE reporter of 0.803.

Compound `CCCSc1ccc2nc(NC(=O)OC)[nH]c2c1` [Albendazole] showed an ISRE reporter of 1.3.
